According to PubChem BioAssay AID1963576 (National Center for Advancing Translational Sciences (NCATS), 2024):
Screen size: about 46,000 compounds; about 60 (0.1%) were called active. Another 3% or so got no clear call; they are omitted. Calls follow the shape of the dose curve; as a rule, active = well fitted inhibition curve with a large enough effect; inconclusive = small, poorly fitted or top-dose-only effect; inactive = no such curve, though single readings can be large or run the other way. The list shows a part of the results.

Experiment: Primary qHTS assay for Inhibitors of ovarian cancer metastasis using an organotypic tumor microenvironment (TME) model. Also: nearly all actives have a fitted effect of over 65% in size.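 As to activity change, negative = inhibition: plate controls were DMSO wells for no effect and tomatine positive control wells for full effect.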
Settings: SKOV3ip1-GFP adhesion/invasion on 3D omental model, fluorescence; series mostly up to 45.8 µM; activity change, negative = inhibition: at the top concentration
Summary of the method: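 Adhesion/invasion was scored as fixed GFP-labeled SKOV3ip1 cell counts (488/509 nm), normalized to DMSO and tomatine controls. Cancer cells in serum-free medium, with four compound doses (0.36-46 umol/L), sat 2 hr at RT then 16 hr at 37 C on a 48 hr fibroblast/mesothelial/ECM culture.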

outcome, inactive:
CCOc1ccc(NC(=O)Cn2cc(C(=O)c3ccc(CC)cc3)c(=O)c3cc(OC)c(OC)cc32)cc1
COc1ccc(-c2c3c(=O)n(C)c(=O)n(C)c3c3c(-c4cccc(C)c4)nc4ccccc4n23)cc1
CCOC(=O)c1ccc2c(c1)N(C(CC)C(=O)Nc1ccccc1OC)C(=O)c1ccccc1S2 (stereo not given)
CCc1ccc(-n2c(=O)c3sc4ccccc4c3n(CC(=O)NC3CCCCC3)c2=O)cc1
CCOC(=O)c1nc(Nc2ccc(C(C)=O)cc2)c2ccccc2n1
Cc1cccc(-n2ccnc2SCC(=O)Nc2ccc(F)cc2F)c1C
O=C(Cn1c(=O)oc2cc(S(=O)(=O)N3CCCCCC3)ccc21)NCc1ccccc1Cl
C[C@H](NC(=O)OC(C)(C)C)c1nnc(SCc2c(F)cccc2Cl)o1
CCOc1ccc(C(=O)N(Cc2sccc2C)C2CCS(=O)(=O)C2)cc1 (stereo not given)
COc1cccc(NC(=O)CSc2nc3cc(OC)c(OC)cc3c3nc(-c4ccccc4)nn23)c1
CN(C)c1ccc(C(CNC(=O)c2ccccc2C(F)(F)F)N2CCOCC2)cc1 (stereo not given)
Cc1ccc(CN2CCCN(CC(=O)Nc3ccc(C)cc3C)S2(=O)=O)cc1
O=c1c(-c2cc(-c3ccccc3)nc3c2COc2ccc(Cl)cc2-3)coc2ccc(F)cc12
Cc1nn2c(=O)cc(COC(=O)Cc3ccccc3)nc2s1
COc1ccc(CNC(=O)C2CCCN(S(=O)(=O)c3cccc4nsnc34)C2)cc1 (stereo not given)
COc1ccccc1CNC(=O)c1ccc2nc(N3CCCCC3)sc2c1
CCC1CN(C(=O)N2CCC(C(=O)Nc3ccccc3F)CC2)c2ccccc2O1 (stereo not given)
Cc1ccc(-n2c(=O)cc(N3CCN(c4ccccc4Cl)CC3)[nH]c2=O)cc1
Cc1nn(S(=O)(=O)c2ccc(Br)cc2)c(C)c1S(=O)(=O)N1CCCCCC1
COc1cccc(Cn2c(Oc3cc(C)cc(C)c3)nc3c2c(=O)n(C)c(=O)n3C)c1
COc1cccc(C(=O)Nc2cccc(OCc3cc(=O)n4c5c(sc4n3)CCCC5)c2)c1
COc1ccc2sc(N(Cc3cccnc3)C(=O)c3ccc4c(c3)OCCO4)nc2c1
O=C(NCc1ccccc1Br)c1cnc2sc(N3CCCCCC3)nn2c1=O
CCN(CC)c1nc2ccccc2nc1C(=O)Nc1cc(OC)c(OC)c(OC)c1
COc1ccccc1NC(=O)C1=C(C)Nc2nc(SCc3ccccc3Cl)nn2C1c1ccccn1 (stereo not given)

Activity change, negative = inhibition, inactive:
COc1ccc(S(=O)(=O)NCCCO)cc1-c1nnc2c3ccccc3c(C)nn12 66.1%
C=CCc1cccc(C=NNC(=O)CN2CCN(Cc3ccccc3)CC2)c1O -18.3%
Cc1cc(NC(=O)CCS(=O)(=O)c2cc(Br)cc3c2N(C(=O)C2CC2)CC3)ccc1Br -6.31%
Cc1ccc(NC(=O)Cn2nc(-c3ccncc3)ccc2=O)cc1Cl 0.403%
CC(C)CCNC(=O)CSc1nc2ccccc2nc1Cc1ccccc1 18.3%
COc1ccc(Cn2c(=O)c3cccnc3n(CC(=O)Nc3ccc(C)c(F)c3)c2=O)cc1 -20.9%
O=C(Nc1c(C(=O)Nc2ccc(F)cc2)oc2ccccc12)c1cc2ccccc2o1 30.4%
COc1cc2c(cc1OC)C(COc1ccc3c(C)cc(=O)oc3c1)N(C(=O)C(C)C)CC2 (stereo not given) 1.18%
Cc1cc(Oc2c(C(F)(F)F)oc3c(CN4CCC(C)CC4)c(O)ccc3c2=O)cc(C)c1Cl 2.27%
CCc1ccc(NC(=O)Cn2nc3c4ccccc4n(Cc4ccccc4)cc-3c2=O)cc1 -1.1%
CCOc1ccc(-c2cc(OC(=O)c3ccc(OC)cc3)c3c(C)oc(C)c3c(=O)c2)cc1 2.03%
O=C1CC(c2cccc(O)c2)c2c(nc(SCc3ccccc3F)[nH]c2=O)N1 (stereo not given) -0.082%
CCc1nc2ccc(C(=O)N3CCN(c4cccc(C)c4C)CC3)cc2nc1CC -1%
Cc1ccc(-c2nc3c4ccccc4[nH]c(=O)n3n2)cc1 -2.83%
O=C(c1ccc(CSc2nc3ccncc3n2Cc2ccc(F)cc2)cc1)N1CCCCCC1 14.5%
COCCCNC(=O)c1cc2c(=O)oc3ccc(C)cc3c2s1 -5.86%
CCc1cccc(-n2c(C)nc3c(cnn3-c3ccc(C)c(C)c3)c2=O)c1 -1.06%
CCOc1ccc(NC(=O)CSc2nc(C)c(C(=O)Nc3ccccc3)c(-c3ccc(Cl)cc3)c2C#N)cc1 4.08%
CCOc1ccccc1CNC(=O)c1cc2n(n1)CCCN(Cc1ccc(C)cc1)C2=O -3.44%
CCc1ccccc1NC(=O)Nc1ccc2c(c1)N(CC)C(=O)c1ccccc1S2 -4.22%
COc1cc(OC)c(NC2(c3ccccc3)C(=O)c3ccccc3C2=O)cc1Cl -3.94%
CCn1c2ccccc2c2cc(CN3CCN(Cc4ccccc4Cl)CC3)ccc21 8.74%
O=C(Nc1ccc(OC(F)(F)F)cc1)c1nc2ccccc2nc1N1CCCCC1 1.4%
CN(C)CCNc1ncnc2c1cnn2-c1cccc(Cl)c1 6.2%
CSc1ccc(CCNC(=O)Cn2ccc3cc(S(=O)(=O)N4CCCCCC4)ccc32)cc1 -34.7%
Cc1c(C(=O)Nc2ccc(C(=O)O)cc2)nnn1-c1ccccc1 -1.87%
Cc1c(Cl)cccc1NC(=O)c1ccc2c(c1)CCN2S(=O)(=O)c1ccccc1 13.6%
O=C(Nc1nc2n(n1)C(c1ccc(F)cc1)C=C(c1ccccc1)N2)c1ccco1 (stereo not given) -8.28%
CCCCSc1nnc2c(n1)OC(c1ccc(Br)s1)N(C(C)=O)c1ccccc1-2 (stereo not given) -2.66%
Nc1c(C(=O)Nc2ccc(OC(F)(F)F)cc2)sc2nc(-c3ccncc3)ccc12 1.64%
CCOc1ccccc1-c1noc(CSc2nnc(-c3ccccc3)n2-c2ccc(F)cc2)n1 0.887%
COC(=O)c1c(NC(=O)c2nc(SCc3ccc(F)cc3)ncc2Cl)sc2c1CCCC2 0.0438%
COc1ccc(NC(=O)CN2C(=O)COc3ccc(S(=O)(=O)N4CCCCCC4)cc32)cc1 1.35%
Cc1ccc(C)c(N2CCN(c3c(CN4CCCC4)c(=O)oc4ccccc34)CC2)c1 -18.9%
CCCC(=O)Nc1ccccc1OCc1cc(=O)n2cc(C)ccc2n1 -3.29%
Cc1ccc(CCNC(=O)c2ccc3c(Cl)c4c(nc3c2)CCCC4)cc1 4.31%
O=C(Nc1cccc(Cl)c1Cl)c1cc(S(=O)(=O)NCc2ccc3c(c2)OCO3)ccc1F 0.572%
Cc1cc(C)cc(NC(=O)CCS(=O)(=O)c2cccc3nsnc23)c1 27.1%
COc1ccc(CC(=O)N2CCc3cc(OC)c(OC)cc3C2COc2cc(C)cc(C)c2)cc1OC (stereo not given) -24.5%
Cc1cccc(C)c1Nc1nn2c(=O)c3cc4c(cc3nc2s1)OCO4 3.13%
COc1cccc(NC(=O)C(=O)NCC(c2ccc3c(c2)OCO3)N2CCN(C)CC2)c1 (stereo not given) -0.492%
CCc1ccc(N(CC)C(=O)c2cc3c(=O)oc4ccc(C)cc4c3s2)cc1 6.19%
CC(=O)c1ccc(NS(=O)(=O)c2cccc(S(=O)(=O)c3ccc(Cl)cc3)c2)cc1 3.94%
COCCNc1oc(-c2ccccc2)nc1S(=O)(=O)c1ccc(Br)cc1 0.141%
COc1ccc2oc(=O)c(C(=O)NCCc3c(C)[nH]c4ccc(F)cc34)cc2c1 12.5%
COc1cccc(-c2nc(S(=O)(=O)c3ccc(Cl)cc3)c(NCc3ccccc3)o2)c1 2.82%
CCc1ccc(-c2cn3c(n2)sc2cc(C(=O)NC4CCCCC4)ccc23)cc1 -3.09%
CC(=O)Nc1ccc(NS(=O)(=O)c2c(C(=O)N3CCC(C)CC3)c(C)n(C)c2C)cc1 -1.12%
CCCCN(CC)CCCNC(=O)c1cc2c(=O)[nH]c3ccccc3c2n1C -28.1%
COc1ccc(NC(=O)CCCSc2nc(-c3ccco3)cc(C(F)(F)F)n2)cc1OC 9.53%
O=C(NCCc1ccccc1Cl)c1sc2ncccc2c1-n1cccc1 -0.731%
CCC(=O)N1c2ccccc2CC1C(=O)NCCc1ccccc1 (stereo not given) 0.658%
Cn1c(=O)oc2cc(S(=O)(=O)N3CCCC(C(=O)NCc4ccc(F)cc4)C3)ccc21 (stereo not given) -4.62%
CC(C)CCNC(=O)c1cc2cc(S(=O)(=O)N3CCCCC3)ccc2n1C 4.76%
O=C(Nc1ccc(F)c(Cl)c1)N1CC=C(c2c[nH]c3ccccc23)CC1 -7.54%
CC(C)(C)C(=O)Oc1ccc2c(c1)nc(NC(=O)c1cccc([N+](=O)[O-])c1)n2CCCO 7.59%
CC1=C(C(N)=O)C(c2ccccc2Br)n2ncnc2N1 (stereo not given) 21.1%
COc1cccc(Cn2nnc3c(=O)[nH]c(C4CCN(C(=O)c5ccccc5Cl)CC4)nc32)c1 -4.69%
CSc1ncc(Cl)c(C(=O)Nc2c(C(=O)Nc3cccc(Cl)c3)oc3ccccc23)n1 -4.09%
CCC(=O)Nc1ccccc1-c1nc2ccccc2n(CC(=O)c2ccc(C)cc2)c1=O -5.08%
COc1ccc(CNC(=O)CCCN2C(=O)COc3ccc(C)cc32)cc1 0.159%
Cc1ccc(N2CCN(C(=O)c3cnc(N4CCCCC4)c4ccccc34)CC2)c(C)c1 1.04%
COc1ccc(-n2nc(C(=O)N3CCCC(C)C3)c3c4ccccc4n(C)c3c2=O)cc1Cl (stereo not given) 12.8%
COc1cc(OC)c(NC(=O)CCCn2nc(C)c3c(C)n(-c4ccccc4)nc3c2=O)cc1Cl -10.8%
CCOC(=O)c1ccc(NC(=O)CSc2c3c(nc4cc(Cl)ccc24)CCCC3)cc1 27.5%
Cc1ccc(N2CCn3c2nc2c3c(=O)n(CCCc3ccccc3)c(=O)n2C)cc1C -2.03%
Cc1nn2c(C)c(C(=O)NCc3ccco3)cnc2c1-c1ccccc1 -7.31%
Cc1nn(C(=O)c2ccc(Cl)cc2)c(C)c1S(=O)(=O)N1CCCCCC1 -10.3%
O=C(NC1CC(=O)N(c2ccccc2)C1)c1ccc(S(=O)(=O)N2CCCCC2)cc1 (stereo not given) -0.917%
CN(C)c1ccc(/C=C/c2noc(-c3ccccc3O)n2)cc1 10.3%
